From publication PMC4336329 (PLoS ONE, 2015)
Hit rate of the full screen: of about 310,000 compounds, about 14,000 (4.5%) showed an effect of 50% or more. The effect is printed as a negative number. This is one part of the list.

The compounds below were run against human ether-à-go-go-related gene (hERG) potassium channel (human, UniProt Q12809) (assay: primary screen, population patch clamp on CHO cells stably expressing hERG).
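Note: peak tail current of the secondary pulse compared with the same well before compound.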

human ether-à-go-go-related gene (hERG) potassium channel, sequence (Q12809 whole entry, looked up): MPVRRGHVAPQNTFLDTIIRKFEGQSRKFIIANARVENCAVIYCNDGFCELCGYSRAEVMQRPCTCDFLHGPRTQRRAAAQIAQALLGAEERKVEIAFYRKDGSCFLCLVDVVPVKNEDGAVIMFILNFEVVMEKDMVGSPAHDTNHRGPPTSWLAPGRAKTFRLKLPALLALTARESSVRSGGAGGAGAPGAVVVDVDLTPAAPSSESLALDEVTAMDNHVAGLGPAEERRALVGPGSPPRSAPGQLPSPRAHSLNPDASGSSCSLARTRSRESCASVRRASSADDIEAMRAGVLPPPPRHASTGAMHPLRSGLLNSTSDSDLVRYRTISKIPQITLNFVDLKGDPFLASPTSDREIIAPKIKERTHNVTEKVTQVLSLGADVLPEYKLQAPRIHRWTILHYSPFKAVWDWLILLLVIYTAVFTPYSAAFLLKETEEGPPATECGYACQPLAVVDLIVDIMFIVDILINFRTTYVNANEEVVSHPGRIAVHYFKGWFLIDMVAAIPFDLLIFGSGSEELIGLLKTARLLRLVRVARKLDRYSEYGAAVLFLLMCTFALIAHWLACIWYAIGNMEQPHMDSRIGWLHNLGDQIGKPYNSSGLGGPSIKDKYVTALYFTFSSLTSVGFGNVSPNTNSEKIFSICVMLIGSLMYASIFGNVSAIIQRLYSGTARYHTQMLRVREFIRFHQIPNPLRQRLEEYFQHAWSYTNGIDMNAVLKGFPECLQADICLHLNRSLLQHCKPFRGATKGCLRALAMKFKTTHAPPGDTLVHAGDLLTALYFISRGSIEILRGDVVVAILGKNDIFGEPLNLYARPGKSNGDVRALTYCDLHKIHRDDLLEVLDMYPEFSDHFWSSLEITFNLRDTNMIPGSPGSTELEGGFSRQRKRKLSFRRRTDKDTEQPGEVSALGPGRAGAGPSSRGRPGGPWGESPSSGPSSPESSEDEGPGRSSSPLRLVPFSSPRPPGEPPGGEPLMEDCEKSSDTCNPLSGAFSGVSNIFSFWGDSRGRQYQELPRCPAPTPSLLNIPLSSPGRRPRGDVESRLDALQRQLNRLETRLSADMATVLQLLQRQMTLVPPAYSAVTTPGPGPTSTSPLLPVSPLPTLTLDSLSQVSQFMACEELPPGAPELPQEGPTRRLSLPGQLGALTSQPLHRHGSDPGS

| Compound | hERG current change (%, negative = inhibition) at 10uM |
| --- | --- |
| O=C(N/N=C1\NC(=O)C(CO)(CO)S1)c1ccccc1 | -4.47% |
| Cc1cc(N2CCOCC2)nc(N)n1 | 20.9% |
| O=C(O)COc1ccc(NC(=O)c2cccs2)cc1 | 12.7% |
| CCN(CC)c1nc(Oc2ccc(C(=O)OC)cc2)nc(N2CCOCC2)n1 | -24.3% |
| COc1cccc(OC)c1C(=O)Nc1ccc(N2CCN(C(=O)c3cccs3)CC2)cc1 | -0.0943% |
| CCOC(=O)C1CCCN(C(=O)c2cccc(NC(=O)C(CC)CC)c2)C1 (centres unmarked) | 18.7% |
| CCCCn1c(SCC(=O)NC2CCS(=O)(=O)C2)nnc1-c1ccc(OC)cc1 (centres unmarked) | -4.68% |
| CC(C)(C)c1ccc(C(=O)C2CCCN(C(=O)C3CCOCC3)C2)cc1 (centres unmarked) | -7.14% |
| O=C(NC(NC1CCS(=O)(=O)C1)C(=O)c1cccs1)c1ccccc1 (centres unmarked) | -1.01% |
| CC(CN1CCCCC1)C(=O)NNC(=O)C12CC3CC(CC(C3)C1)C2 (centres unmarked) | 3.74% |
| CCOC(=O)N1CCN(C(=O)c2cc3c(=O)[nH]c4ccccc4c3s2)CC1 | 4.32% |
| O=C(NCC1COc2ccccc2O1)c1cccc(S(=O)(=O)N2CCCCC2)c1 (centres unmarked) | -25.7% |
| Cc1cc(NC(=O)CSc2nnc(-c3ccco3)n2Cc2ccccc2)no1 | -44.3% |
| CC(=O)Nc1ccc(S(=O)(=O)Nc2c(C)nn(-c3ccccc3)c2C)cc1 | -7.68% |
| Cc1ccc2cc(S(=O)(=O)NCCCN3CCOCC3)ccc2c1 | -19.4% |
| CCCN(CC1CC1)C(=O)CSc1nnc(-c2ccco2)n1N | -21.2% |
| O=C(N/N=C/c1ccc(Sc2nc3ccccc3[nH]2)o1)c1ccncc1 | 5.7% |
| CCOC(=O)c1cn(CC#N)c2cc(F)c(F)cc2c1=O | 10% |
| CC1(C)CC(=O)C(C(=O)C2CCN(S(=O)(=O)c3ccccc3)CC2)C(=O)C1 | 3.17% |
| O=C(Cc1cscn1)c1ccc(O)cc1O | -9.71% |
| O=C1COc2ccc(C(=O)COc3ccc(Cl)cc3Br)cc2N1 | -15.6% |
| Cc1cc(NC(=O)CCC(=O)N(c2ccccc2F)C(C(=O)NC2CCCC2)c2ccccc2)no1 (centres unmarked) | 25.6% |
| Oc1ccccc1C(=S)N1CCCCCC1 | 9.43% |

| Compound | hERG current change (%, negative = inhibition) at 10uM |
| --- | --- |
| Cc1ccc(NC(=O)c2cccc(N3C(=O)C4C5CCC(C5)C4C3=O)c2)c(C)c1 (centres unmarked) | 15% |
| O=c1oc2ccccc2cc1-c1nc2ccccc2o1 | -12.6% |
| O=C(OCC(=O)N1CCCCC1)c1cccc(NS(=O)(=O)c2ccccc2)c1 | 5.54% |
| NC(=O)CC[C@@H]1NC(=O)[C@@H]2CCCN2C(=O)c2cc([N+](=O)[O-])cc(F)c2NCCC[C@@H](C(N)=O)NC1=O | -29.4% |
| CCNC(=O)c1ccc2c(c1)S(=O)(=O)c1ccccc1C2=O | -42.4% |
| Cc1c(=O)n(OCc2cccc(F)c2)c2ccccc2[n+]1[O-] | -3.42% |
| N#Cc1nc(-c2ccc(Cl)cc2)oc1N1CCCCC1 | 5.04% |
| COc1ccc2c(c1)c1ncn(CCc3ccccc3)c(=O)c1n2C | -17.9% |
| NS(=O)(=O)c1cccnc1Nc1ccc(Cl)c(Cl)c1 | -6.54% |
| CCC(CO)(C(=O)OC1C[N+]2(C)CCC1CC2)c1ccccc1.[I-] (centres unmarked) | 13.9% |
| CCCCC1(C)Cc2ccccc2C(=S)N1 (centres unmarked) | 11.6% |
| COc1cccc(NC(=S)N(CCc2c(C)[nH]c3ccc(C)cc23)Cc2cccs2)c1 | 10.7% |
| COc1ccccc1OCc1cc(C(=O)NCCN2CCCC(O)C2)no1 (centres unmarked) | -1.14% |
| COc1ccc(C2(C(=O)Nc3ccc(OC)cc3OC)CCCC2)cc1 | 0.491% |
| CCCCn1c(O)c(/C=N/NC(=O)c2ccncc2)c(=O)[nH]c1=S | 12.4% |
| COc1ccc(-c2nn(C)c(=O)[nH]2)cc1 | 19.7% |
| CC1CCN(C(=O)COc2ccccc2F)CC1 | 12.7% |
| O=C(c1cnsn1)N1CCCC(Nc2ccc(F)c(F)c2)C1 (centres unmarked) | 1.04% |
| O=C(NCc1nnc(SCC(=O)N2CCOCC2)o1)c1c(F)cccc1F | 19.6% |
| CCn1c(SCc2ccc([N+](=O)[O-])cc2)nnc1C(C)NC(=O)c1ccccc1Br (centres unmarked) | -27.6% |
| Cc1cc(C(=O)COC(=O)c2ccc(O)cc2)c(C)n1CC(F)(F)F | 1.56% |
| Cc1c(C(=O)C(=O)N2CCN(C)CC2)c2ccccc2n1C | 3.97% |
| O=C(CSCc1ccc(Br)cc1)N1CCOCC1 | 3.5% |

| Compound | hERG current change (%, negative = inhibition) at 10uM |
| --- | --- |
| CCOc1ccc(N(CC(=O)NC(C)(C)C)C(=O)c2ccco2)cc1 | -1.84% |
| CS(=O)(=O)N(CC(=O)Nc1ccccc1C(=O)N1CCOCC1)c1ccccc1 | 17.7% |
| COc1ccccc1C1C=C(c2ccc(Cl)cc2)Nc2nc(N3C(=O)CCC3=O)nn21 (centres unmarked) | -32.8% |
| COc1ccc(C(=O)NC(=S)N2CCOCC2)cc1Br | 7.39% |
| CCN(CC)S(=O)(=O)c1ccc(N2CCN(S(=O)(=O)c3ccc4c(c3)OCCO4)CC2)nc1 | -1.34% |
| O=C(c1ccc(-n2nc(C(F)(F)F)c3c2CCCC3)cc1)N1CCOCC1 | -4.55% |
| c1ccc(C2CN3CCC2CC3)cc1 (centres unmarked) | -5.74% |
| Cc1ccc(N(C(=O)c2csnn2)C(C(=O)NC2CCCCC2)c2ccncc2)cc1 (centres unmarked) | -1.71% |
| CCc1ccccc1NC(=O)c1cccc(NC(=O)/C=C/c2ccco2)c1 | -8.22% |
| COc1ccc(OCCSc2ccc(S(=O)(=O)N3CCCC3)cn2)cc1 | -27.2% |
| O=C(CCc1c[nH]c2ccccc12)OCc1ccc(Br)cc1 | 10.2% |
| COc1ccc(N(CC(=O)Nc2ccc3c(c2)OCO3)S(=O)(=O)c2ccc(C)cc2)cc1OC | 8.47% |
| CC(C)(C)c1ccc(Cn2cnc(-c3ccc([N+](=O)[O-])cc3)c2)cc1 | -5.95% |
| CC1(C)CC(=O)C/C(=N\NC(=O)c2cccs2)C1 | 3.15% |
| CC(=O)Nc1cccc(NC(=O)Cc2cccs2)c1 | 8.67% |
| Cc1cccc(CCNC(=O)C2CCN(S(=O)(=O)c3cccc4nsnc34)CC2)c1 | 1.86% |
| O=C(COC(=O)/C=C/c1cccs1)Nc1ccc2ccccc2c1 | 7.66% |
| COc1ccc(S(=O)(=O)NCCCn2ccnc2)cc1C(C)(C)C | -24.2% |
| Nc1ccc(O)cc1C(=O)OCC(=O)c1ccc(C2CCCCC2)cc1 | 8.51% |
| O=C(O)c1ncn(Cc2ccc(Br)cc2)c1C(=O)O | 21.6% |
| CC1CCN(C(=O)CSc2nc3c(c(=O)n(C)c(=O)n3C)n2C)CC1 | 10.5% |
| C#CCSc1cc(C(F)(F)F)nc(-c2ccccn2)n1 | -62.9% |
| Cc1ccccc1CC(=O)Nc1cc(C(C)(C)C)on1 | 2.73% |

| Compound | hERG current change (%, negative = inhibition) at 10uM |
| --- | --- |
| Cc1onc(-c2c(F)cccc2Cl)c1C(=O)NCCN1CCNC1=O | 10.4% |
| COc1ccc(CC2C(=O)N(c3ccccc3)C(=O)N(c3ccccc3)C2=O)c(OC)c1 | 13.1% |
| Cc1c(C(=O)N2CCCCC2)nnn1-c1nonc1N | -3.81% |
| CCN(CC)CCNc1nc(-c2ccccc2)nnc1C(F)(F)F | -37.1% |
| Cc1ccc(CSCC(=O)N/N=C/c2ccc(OCC(=O)Nc3ccc(C)cc3)cc2)cc1 | 5.5% |
| CNC(=O)C1C2C=CC3(O2)C1C(=O)N(C1CC1)C3C(=O)NCc1ccc(OC)cc1 (centres unmarked) | 9.61% |
| CCOC(=O)c1sc(N(Cc2ccccc2)C(=O)CN2C(=O)CN(C)C2=O)nc1C | -59% |
| COc1ccc(C(=O)N[C@H]2CCCCNC2=O)cc1OC1CCN(C(C)C)CC1 | 15.3% |
| COc1ccc(NC(=O)C(=O)NCC(=O)Nc2cc(OC)ccc2OC)cc1 | 3.44% |
| Cc1cccc(-n2c(O)c(C=NCc3ccccn3)c3ccccc3c2=O)c1 | -60.9% |
| O=C(N[C@@H](Cc1ccccc1)C(=O)NC1CC1)c1ccc(Cl)cc1 | 1.83% |
| COc1cc2c(cc1OC)/C(=C/C(=O)c1ccccc1F)NCC2 | -31.7% |
| O=C(Nc1c(F)cc(F)cc1Br)c1ccco1 | 0.86% |
| CCOc1ccc(CCNC(=O)COn2nnc3ccc(S(=O)(=O)N4CCOCC4)cc32)cc1OCC | -8.41% |
| Cc1cccc(Oc2c([N+](=O)[O-])c(=O)n(C)c3ccccc23)c1 | -6.73% |
| O=C(Cc1ccccc1)Nc1ccc(N2CCCC2)cc1 | -5.37% |
| C=CCS/C(N)=N\N=C\c1c(O)ccc2ccccc12 | 7.14% |
| Cn1c(CO)cnc1SCC(=O)c1ccc(F)cc1 | 16.2% |
| Cc1ccc(S(=O)(=O)N2CCCCC2)cc1C(=O)NCc1ccccn1 | 14.4% |
| Cn1cccc1/C=C1\SC(=S)N(NC(=O)c2ccccc2O)C1=O | 7.87% |
